Measured values taken from article PMC12136788.
The other results are listed elsewhere or left out.

T1: UNK ZnF1-6 (called full-length) (human, UniProt Q9C0B0 30-357)
T1 sequence: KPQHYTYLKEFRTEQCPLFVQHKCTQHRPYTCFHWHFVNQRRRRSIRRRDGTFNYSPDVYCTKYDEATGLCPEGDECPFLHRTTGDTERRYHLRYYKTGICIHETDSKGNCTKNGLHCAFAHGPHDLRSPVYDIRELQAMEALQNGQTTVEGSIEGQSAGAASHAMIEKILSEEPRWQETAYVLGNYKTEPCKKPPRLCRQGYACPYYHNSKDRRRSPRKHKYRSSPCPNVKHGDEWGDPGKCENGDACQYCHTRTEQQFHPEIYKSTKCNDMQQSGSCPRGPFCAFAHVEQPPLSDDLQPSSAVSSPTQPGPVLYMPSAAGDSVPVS

B1: chr2:85598546:85599075:-|three_prime_utr|ENSG00000168890|control|control|control (ssRNA)
RNA: GGGAGUUCUACAGUCCGACGAUCAAGCCAGACCACUGGGGUUUCCUGCUGCAGGAAUUGGGGGCUGGGAACAGCAGAGGGGAUAGAAGUCUGGUGGAGGUGGAGUGGGCACGCCUUAGCCUACGGAAAGGCCCAUUUCUGGGCCAACAGAGGAUUGAGCAUCA
B2: chr1:109062750:109062855:-|3pUTR|ENSG00000197780|unk|total|mutant (ssRNA)
RNA: GGGAGUUCUACAGUCCGACGAUCGCUUUCAGCCGCAGGAAUGGCAUUGUUUAAAAAGCUGAUGGCAGGGUAAGCAUUUGGGUCCGUGUUUUAUUAACAUAUUUGUAAGUACUUGUUCAUUGUGGAAAUGUGUCCUUGACUAAACAACAGAGGAUUGAGCAUCA
B3: ENSG00000089057:stop:overlap|stop_codon|ENSG00000089057|stop_codon|NA|stop_codon (ssRNA)
RNA: GGGAGUUCUACAGUCCGACGAUCAAGGCCUCAGGAAGAGCGACAACAGCCGGAGUUCAGAUGAAGACUCCCAGGCCACGGGAUAGCCUUUGCUGUGCCCUGUGGCCUGGCCGCAGUGAGGCAUGUAUCUGUAGUUCCUUGCUGCAACAGAGGAUUGAGCAUCA
B4: chr1:225419324:225419425:-|CDS|ENSG00000143815|msi1|total|mutant (ssRNA)
RNA: GGGAGUUCUACAGUCCGACGAUCUUACACCGCAACACAGUACCGCCUUCGUCCAAGAAGAGAAGAAGUCAAAUUAAAAGAAACCGAUUCUAAGGAAGAAAAAUACGUUGCAAAAGAACUGGCAGUGAGAACCUUUGAAGUGACCAACAGAGGAUUGAGCAUCA
B5: chr7:98206920:98207021:+|3pUTR|ENSG00000164715|unk|FALSE|unique (ssRNA)
RNA: GGGAGUUCUACAGUCCGACGAUCGUUCUGCAUUAAGCCCCAGGUUCUCUUCUGGCUUUGAAAGGGCCCGAGUGCUCCCAGUGUAGCUUCGUCACAUCGUCACGAGCCCCUGUGGUCAUGGGCGACCUCACACCUCCCUCCCUGCAACAGAGGAUUGAGCAUCA
B6: chr6:169419968:169421160:-|three_prime_utr|ENSG00000285733|control|control|control (ssRNA)
RNA: GGGAGUUCUACAGUCCGACGAUCUGGCAGGAGGGGAGGCGUUUAUGAGAGUCCCCGGUGGGCACAUAUUAAAAAAAGCUAAGUAGAAAAAUCACUGAGAACUCAUAACUGGUCAAUGAGUUCAGGUAGACAAUGAGGGAGGGUCAACAGAGGAUUGAGCAUCA
B7: chr7:47276374:47276475:-|3pUTR|ENSG00000136205|msi1|total|mutant (ssRNA)
RNA: GGGAGUUCUACAGUCCGACGAUCCUGGGGUUUGGGAAUGUGCUUUGUGAACUCUGCUUUAAAGUGAGGGGCCGAGGAAAACUCCGAAACAGGCAGAGUUGGAAGCAGCCAAAUCACAGUGGGUGUUGUGUGUGUGUGCGUGUGCAACAGAGGAUUGAGCAUCA
B8: chrX:155260805:155261229:-|CDS|ENSG00000155961|control|control|control (ssRNA)
RNA: GGGAGUUCUACAGUCCGACGAUCUGGUCUUCUCUUAUUUGACAUUACCAACCGCAGGUCCUUCCAGAAUGUCCAUGAGUGGUUAGAAGAGACCAAAGUACACGUUCAGCCCUACCAAAUUGUAUUUGUUCUGGUGGGUCACAACAACAGAGGAUUGAGCAUCA
B9: chr11:46383557:46383658:+|3pUTR|ENSG00000110492|msi1_unk|total|mutant (ssRNA)
RNA: GGGAGUUCUACAGUCCGACGAUCCCACGCCCUCCCUCUCCCAGGCCCGAGAUGUGACCCACCAGUGCCUUCUGUCUGCUCGUCCGCUUUAAUCAAUCAUGCCCUGCCUUGUCCCUCUCACUCCCCAGCCCCACCCCUAAGUGCCAACAGAGGAUUGAGCAUCA
B10: chr17:4897770:4898853:-|three_prime_utr|ENSG00000108556|control|control|control (ssRNA)
RNA: GGGAGUUCUACAGUCCGACGAUCUCCUCGGGGCCUACUUCAACCGAGUGCCUGAUCUCCCCUACGCGCCGUGUAUCCAGCCUUAGCUCGCACCGACUUCAAUUUCCCACCCAUCUCCAGUAGGAAAUUGAUUUUGAAAAAGUACAACAGAGGAUUGAGCAUCA
B11: chr3:27376575:27376676:-|3pUTR|ENSG00000033867|msi1|total|mutant (ssRNA)
RNA: GGGAGUUCUACAGUCCGACGAUCCUAUAUAUAAGAAUAUUGUAUGUCAUGCUGUUUAUGUGUGACUACCGGGUUUUUAAAAGCCGUGUCUGGAGUUUGUAAUGAGCACCGUGGAGACUAUGUAUUUAAUGAAAUGCUCUCUUUCAACAGAGGAUUGAGCAUCA
B12: chr10:7163078:7163179:-|3pUTR|ENSG00000198879|unk|total|mutant (ssRNA)
RNA: GGGAGUUCUACAGUCCGACGAUCAGAGGUGCCUUUCCGGAAUACGGGGAGUGAAGGAAGGCCGGCAGGCAUCUCCAUGCAACCCGAUGGUUUGUUUGUUUGUUUGUUUGUUUGUUGUUCAUUUUGUUGUGUUUUUUGAGACAGCAACAGAGGAUUGAGCAUCA
B13: chr8:143915815:143915916:-|3pUTR|ENSG00000178209|msi1|FALSE|unique (ssRNA)
RNA: GGGAGUUCUACAGUCCGACGAUCGCCAGGUGCCUUGGAGGGUCCCAAGCUGGGCCCCAGCCCACCCUCCUGUCUUCCCAGGGUAGCCCGCCUGCCAGUCCUAGCUGCACAGGGCAGCUGGGCCCAACCCUGUCUGUAGAGGGCCAACAGAGGAUUGAGCAUCA
B14: chr18:67512643:67512744:-|CDS|ENSG00000171451|unk|total|mutant (ssRNA)
RNA: GGGAGUUCUACAGUCCGACGAUCGCCAUGAUGGAUGUGUGGGAUGCACAUUACAAAAUGUUUUGGUUUGAUCAUCAUGGCAACCGUCCCAUGGCCAGUAUACAGGAAGCAGAGCAAGCUGCUGAAUUUAAAAAACGAUGGACUCAACAGAGGAUUGAGCAUCA

Target: T1, UNK ZnF1-6 (called full-length)
Experiment: nsRBNS (natural sequence RNA bind-n-seq); RBNS binding buffer (assumed for nsRBNS): 25 mM Tris pH 7.5, 150 mM KCl, 3 mM MgCl2, 0.01% Triton X-100, 500 ug/ml BSA, 20 U/ml SUPERase-In, 4 C; UNK is unkempt and MSI1 is Musashi-1; names of the RNAs are library labels; protein concentration not given here; high values mean tight binding

B1 was tested. Which binding signal did it give?
The binding signal was 1.09 enrichment R.

For B2, which binding signal is on record?
Its binding signal is 0.702 enrichment R.

With B3 as the binder, how does the binding signal read?
The binding signal was 1.43 enrichment R.

How did the binding signal turn out when B4 was run?
Its binding signal is 0.38 enrichment R.

For B5, which binding signal is on record?
Its binding signal is 1.26 enrichment R.

With B6 as the binder, how does the binding signal read?
Its binding signal is 1.69 enrichment R.

For B7, which binding signal is on record?
Its binding signal is 0.971 enrichment R.

With B8 as the binder, how does the binding signal read?
Its binding signal is 0.539 enrichment R.

Which binding signal does the source give for B9 here?
The binding signal was 1.45 enrichment R.

Which binding signal does the source give for B10 here?
The binding signal was 0.594 enrichment R.

With B11 as the binder, how does the binding signal read?
The binding signal was 0.486 enrichment R.

With B12 as the binder, how does the binding signal read?
The binding signal was 0.878 enrichment R.

B13 was tested. Which binding signal did it give?
The binding signal was 1.03 enrichment R.

B14 was tested. Which binding signal did it give?
Its binding signal is 0.556 enrichment R.
